Data reported in the supplement of paper PMC3334620.
Whole data set: some 33,000 sequences, median “E-score (-0.5 to 0.5)” near -0.054, cut for the highest 2% near 0.39. The list shows a part of the results.

What follows are sequences tested against Ylr278c (UniProt Q05854) (assay: PBM E-score (8-mer binding enrichment) (E-score (-0.5 to 0.5)); higher = stronger / more preferred TF binding; most listed sequences are background and not binding sites). Details: protein concentration: 200 nM; construct: GST-DNA-binding domain.
Method: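 Universal 'all 10-mer' protein binding microarrays (Agilent AMADID 015681) probed with GST-tagged S. cerevisiae TFs (full-length or DBD) made by in vitro transcription/translation (PURExpress), about 100-200 nM. Bound TF was detected with fluorescent anti-GST. Each ungapped 8-mer (which stands for itself and its reverse complement) is scored by the PBM enrichment score (E-score), a modified Wilcoxon-Mann-Whitney statistic from -0.5 to +0.5, computed with the Universal PBM Analysis Suite. Scale: above 0.35 generally sequence-specific binding.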

Sequence | PBM E-score
ATCGGAAG | 0.332
TAATAGTA | 0.0651
CCTAGGAG | -0.0413
GGGCGGAA | 0.364
CCGATCAA | 0.19
GGATGAAC | -0.021
CCCTAAAA | -0.105
GTCGGCCA | 0.0233
ACCAAGCG | -0.0326
CCAGACTA | -0.258
TACATGTA | 0.00055
CCCCCCAC | -0.329
CCAATTAG | -0.093
ATGGGACC | -0.0947
AGTAACAC | -0.00143
CTCGGGAA | 0.201
CTAGCGCA | -0.163
CAGAGCTA | -0.286
AAAAGATT | 0.0249
CGCACAAG | -0.0172
CAATACAA | -0.0663
GGTGCCTA | -0.116
CACATTTC | 0.2
CAGGGAGC | -0.108
CATAACTA | -0.0216

Sequence | PBM E-score
GAGGAGAA | -0.0438
CGGGTACG | 0.0859
CTTAGCCA | -0.122
CTCAGTGC | 0.0361
ACTATTTC | 0.0859
ACCCCCCG | 0.219
GACTAGTA | -0.181
CACTGTCG | 0.025
GGCCAGCC | -0.182
ACAAGCTC | 0.0206
CGAAGGAC | 0.111
ATTTATTA | 0.0692
TTTGAAAA | -0.139
AATCAGAA | 0.00389
ATCTCCAT | 0.115
AATTTGAG | -0.15
GGACTGAC | -0.0427
TGGACAAA | -0.0419
CCACTGAC | -0.217
CCGTTTCG | 0.141
AATTCGAC | -0.32
ACAGTTCG | 0.175
CGCACCGA | 0.0664
GATATCAC | -0.0631
CGTTGCAC | 0.0328

Sequence | PBM E-score
CTTGTGCA | -0.101
AGAGCGTA | -0.0109
TACGATGA | -0.16
ACCCTACC | -0.122
CCTGTAGC | -0.21
CTCTGGGC | -0.104
GCCTTAAC | -0.258
AGGGGTAA | -0.236
AACACCGG | 0.411
CGAGGCGC | 0.0675
AACCGGGG | 0.321
AATGACGC | -0.18
GACGCGCA | -0.033
AGTGAGCA | -0.231
ATCGAGAG | -0.127
CGACGCGC | 0.21
TATCATAA | -0.126
CGAACCGC | 0.214
CGAATTGA | -0.0135
GATTGCAC | 0.0435
CTCCACCC | -0.105
TGTGAAAA | -0.163
ACATATAG | 0.032
AAGGAACT | -0.0853
GATCAGGA | -0.121

Sequence | PBM E-score
GATAGATA | -0.0448
AAGATGGT | -0.0478
ACAGGACT | -0.0279
ACGTAAAG | -0.189
AGTATTGA | -0.146
CCTCTGCG | -0.125
AAACGACA | -0.14
CGATTTTC | 0.153
ACGCGTCG | 0.183
CGCGTGTA | 0.00891
CCTAGTCC | 0.0197
TCTGTACA | -0.0142
AGATCTGA | -0.0169
AAGGCGGG | 0.0319
CTCAGCCC | -0.249
GTCGCTCA | -0.29
TCCTTCAA | -0.0355
ACGATGTG | -0.166
TCCATCCA | -0.252
AGCTACGA | -0.254
CATTCTCC | 0.191
GCTTGAAA | -0.0583
GCGCTTCC | 0.174
ATAACGTC | -0.0967
GGCAGACA | -0.072

Sequence | PBM E-score
GCCCCAAA | -0.15
TCGCTTCA | -0.0182
CTTTGTCA | 0.00403
ACCGCAAG | 0.175
GATCATAC | 0.0298
AGGAATGG | -0.216
AGACTTCC | 0.103
AATACACC | 0.171
CGACCTAG | 0.02
ATACAAGC | -0.00455
CGACTGGC | 0.0877
ACTTTATA | 0.0648
ACATGTGA | -0.237
CAGGGTGG | -0.199
CTGTTGAC | -0.276
CAAAATAA | 0.00247
ACGTCCTC | -0.0717
AGATACGC | -0.0002
CACATATC | -0.149
ATCTGAGA | -0.201
GATGACCA | -0.0341
ATTCTACC | -0.00365
ATTGACTC | -0.00622
ATGTTCGA | -0.184
GTCAGGGA | -0.062

Sequence | PBM E-score
AGCATAAC | -0.121
GCTCGGTA | 0.136
TACGGATA | 0.123
GCGCACAC | 0.132
CGCAACGC | 0.134
ACAGTTTA | -0.109
CAAGTCAC | -0.0166
GAGCACCC | 0.0213
GGGGATAC | 0.0614
CAGATTTC | -0.0171
CCTAGAGC | 0.032
CACGCCTA | -0.312
CGGATTAC | 0.293
GGCTTTCA | 0.0919
GTTTCACA | -0.145
CGTTGGAG | -0.0709
ACGTGCCC | 0.00925
GCCGCCCA | 0.179
GACTGCCA | -0.0149
AGTCAAAG | -0.065
ACGCACAA | -0.021
AATGAAGG | -0.103
CCTCGATA | 0.0123
AGTCTGGA | -0.179
GCTTCCTA | -0.0609

Sequence | PBM E-score
AACAAACG | -0.0598
TCTCTACA | -0.211
GCGGTCCC | 0.129
TTAGGGAA | -0.146
CAGAGAAC | -0.231
AGGCACGA | -0.142
ATGAAAGC | -0.0408
AAGGTGTC | -0.0958
ACGGTAGT | -0.0374
AATAGGGG | 0.0914
CGCAGGAG | -0.00604
GCCCACAC | -0.0665
CTATGCTC | -0.237
ATTAGGGA | -0.0669
AAACGCTG | -0.189
CATACTTC | -0.0775
CTTCCTTC | -0.3
AGAAAGAT | -0.103
TGCGGCAA | 0.0515
GTAACCAC | -0.244
GCTGGCTA | -0.218
CCAGCGGG | 0.11
